In PMC3791464 (eLife, 2013):
No constants are given. Whether binding was seen depends on the method and setting. In cells and extracts the contact can be indirect. Some entries that bind do so weakly or less than the wild type. Tags and fused reporters may be left off the sequences shown.

Columns and labels:
Test in all cases: pull-down; N-terminally MBP-tagged bait and N-terminally 6×His-tagged prey (with further ORC subunits where named) co-expressed in High5 cells by baculovirus co-infection; clarified lysate (50 mM Tris HCl pH 7.8, 300 mM KCl, 10% glycerol, 1 mM DTT; 0.78 M ammonium sulfate step) on amylose beads, three washes; Coomassie-stained SDS-PAGE, anti-His Western blot for some preys
[1] = target: T1, Drosophila MBP–Orc3, full-length (Drosophila melanogaster) (UniProt Q7K2L1)
T1 sequence: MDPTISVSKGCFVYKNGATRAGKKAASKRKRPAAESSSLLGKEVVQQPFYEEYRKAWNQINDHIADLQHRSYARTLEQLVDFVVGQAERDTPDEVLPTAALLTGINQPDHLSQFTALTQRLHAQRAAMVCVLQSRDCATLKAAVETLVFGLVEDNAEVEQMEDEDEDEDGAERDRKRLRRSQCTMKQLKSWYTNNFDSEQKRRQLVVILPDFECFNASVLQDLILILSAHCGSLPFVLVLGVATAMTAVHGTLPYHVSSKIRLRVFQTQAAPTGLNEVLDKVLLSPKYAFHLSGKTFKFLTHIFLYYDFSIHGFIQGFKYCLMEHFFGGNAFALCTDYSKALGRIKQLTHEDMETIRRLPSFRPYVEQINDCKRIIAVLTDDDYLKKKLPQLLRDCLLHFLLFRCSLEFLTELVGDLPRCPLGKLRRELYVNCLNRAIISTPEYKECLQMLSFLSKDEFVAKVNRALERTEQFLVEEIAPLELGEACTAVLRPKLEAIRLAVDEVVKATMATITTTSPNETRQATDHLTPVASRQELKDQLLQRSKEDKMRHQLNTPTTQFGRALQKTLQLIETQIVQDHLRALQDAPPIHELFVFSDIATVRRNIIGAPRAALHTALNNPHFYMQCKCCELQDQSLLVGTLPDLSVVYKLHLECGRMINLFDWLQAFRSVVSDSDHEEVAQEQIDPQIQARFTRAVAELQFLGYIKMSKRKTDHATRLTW

[2] = target: T2, Drosophila MBP–Orc3 insertion (residues 371–559) (Drosophila melanogaster) (UniProt Q7K2L1)
T2 sequence: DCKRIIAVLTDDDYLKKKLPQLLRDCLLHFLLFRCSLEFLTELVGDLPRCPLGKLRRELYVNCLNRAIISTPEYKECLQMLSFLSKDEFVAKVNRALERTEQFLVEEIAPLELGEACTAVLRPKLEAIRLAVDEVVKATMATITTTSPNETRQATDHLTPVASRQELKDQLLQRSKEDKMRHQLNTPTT

[3] = target: T3, S. cerevisiae MBP–Orc1 (S. cerevisiae) (UniProt P54784)
T3 sequence: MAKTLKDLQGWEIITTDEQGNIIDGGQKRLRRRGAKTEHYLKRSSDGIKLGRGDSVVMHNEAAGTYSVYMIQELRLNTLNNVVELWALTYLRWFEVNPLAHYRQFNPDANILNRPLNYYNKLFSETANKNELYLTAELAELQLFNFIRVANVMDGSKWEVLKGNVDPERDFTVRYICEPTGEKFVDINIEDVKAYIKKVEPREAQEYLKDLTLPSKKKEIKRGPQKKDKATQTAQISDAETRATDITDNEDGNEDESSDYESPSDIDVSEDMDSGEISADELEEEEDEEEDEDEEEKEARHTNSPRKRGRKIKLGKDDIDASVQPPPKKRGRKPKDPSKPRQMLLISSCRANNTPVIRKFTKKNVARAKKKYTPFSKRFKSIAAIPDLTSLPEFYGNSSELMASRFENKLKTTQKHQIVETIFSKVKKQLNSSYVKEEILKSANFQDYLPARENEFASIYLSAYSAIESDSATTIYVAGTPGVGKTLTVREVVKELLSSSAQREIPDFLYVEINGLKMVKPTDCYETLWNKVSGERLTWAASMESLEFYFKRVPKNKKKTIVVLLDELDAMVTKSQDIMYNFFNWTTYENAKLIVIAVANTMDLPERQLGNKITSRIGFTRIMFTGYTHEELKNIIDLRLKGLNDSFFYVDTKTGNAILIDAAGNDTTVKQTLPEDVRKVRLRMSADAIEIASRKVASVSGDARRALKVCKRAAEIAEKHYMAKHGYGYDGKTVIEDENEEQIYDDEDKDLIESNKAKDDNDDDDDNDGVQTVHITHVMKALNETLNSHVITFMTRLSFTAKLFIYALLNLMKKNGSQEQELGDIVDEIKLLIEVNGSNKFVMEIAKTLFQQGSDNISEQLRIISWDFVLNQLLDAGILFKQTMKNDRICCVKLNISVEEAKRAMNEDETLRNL

B1: Drosophila Orc2 in untagged recombinant ORC (natural protein, Drosophila melanogaster, UniProt Q24168 1-618, looked up)
chain: MSASNKGGYKTPRKENLMSIENLTNSEEESEDLNTAMVGNAVESQPKVTSRRSTRRPSPTKKYQAYQKESNGKGQEERIVVNYVEMSDERSSDAEDQEEEESIEESENAARPAAKDLHLIQSEYNVAGTSMFGFNTPKKRDAMALAALNATPCTPKTPKTPRLGVKTPDTKRKKSMDQPKTPAHVRTRVKKQIAKIVADSDEDFSGDESDFRPSDEESSSSSSSSDAGNSSDNDAADDEPKTPSRARRAIVVPVLPKTPSAARLRQSARAKKSNEFVPESDGYFHSHASSKILTSDHTLDRLKNPRLAADRVFSLLSEIKTSAEHEGSINAIMEEYRSYFPKWMCILNEGFNILLYGLGSKHQLLQSFHREVLHKQTVLVVNGFFPSLTIKDMLDSITSDILDAGISPANPHEAVDMIEEEFALIPETHLFLIVHNLDGAMLRNVKAQAILSRLARIPNIHLLASIDHINTPLLWDQGKLCSFNFSWWDCTTMLPYTNETAFENSLLVQNSGELALSSMRSVFSSLTTNSRGIYMLIVKYQLKNKGNATYQGMPFRDLYSSCREAFLVSSDLALRAQLTEFLDHKLVKSKRSVDGSEQLTIPIDGALLQQFLEEQEKK
notes: Drosophila Orc2, no purification tag; source: High5 cells co-infected with six baculoviruses, co-purified (Ni, amylose, TEV, gel filtration)
[1]
  binding: binds
[2]
  binding: no binding

B2: Drosophila Orc6-Y225S, N-terminal 6×His (protein, UniProt Q9Y1B2 1-257)
chain: MTTLIEQLITKMGLREEPNVLEKTTELVRLLELRSTNVPLQINEYGKIVLCADLASCMIGIAFDKEQALKLSGLRKSQYLNNKRMFEKLLDLNKLASVNDICVQLGLNEVARKAEELMTLFKGVAATEDMGTDTSHPQYATMAVFQACRLLKKKVSKSKLMPFSNLRPSQFQLLEQQWERMIAKHHKESKVPSSTDMEGKLKENQNENIKGHEAKKAHKPPPEDSEIWKARMLAKAQAKLKELEASQSHMDSQLLEA
modifications: Alexa Fluor 488 on the N-terminus (only in the fluorescence anisotropy assay)
[1]
  binding: binds weakly

B3: Drosophila Orc6, full-length (1–257), N-terminal 6×His (natural protein, Drosophila melanogaster, UniProt Q9Y1B2 1-257, looked up)
chain: MTTLIEQLITKMGLREEPNVLEKTTELVRLLELRSTNVPLQINEYGKIVLCADLASCMIGIAFDKEQALKLSGLRKSQYLNNKRMFEKLLDLNKLASVNDICVQLGLNEVARKAEELMTLFKGVAATEDMGTDTSHPQYATMAVFQACRLLKKKVSKSKLMPFSNLRPSQFQLLEQQWERMIAKHHKESKVPSSTDMEGKLKENQNENIKGHEAKKAHKPPPEDYEIWKARMLAKAQAKLKELEASQSHMDSQLLEA
modifications: Alexa Fluor 488 on the N-terminus (only in the fluorescence anisotropy assay)
notes: Drosophila Orc6, residues 1-257; also called wild-type Orc6; Orc6 WT; source: High5 cells (baculovirus): in lysate of co-infected cells; also purified (HisTrap, gel filtration); not shown: 6×His, N-terminal, kept
[1]
  binding: binds
[2]
  binding: binds

B4: Drosophila Orc6 C-terminal domain (187–257), N-terminal 6×His (domain or fragment, Drosophila melanogaster, UniProt Q9Y1B2 187-257, looked up)
chain: KESKVPSSTDMEGKLKENQNENIKGHEAKKAHKPPPEDYEIWKARMLAKAQAKLKELEASQSHMDSQLLEA
modifications: Alexa Fluor 488 on the N-terminus (only in the fluorescence anisotropy assay)
notes: Drosophila Orc6, residues 187-257 (C-terminal domain); not detected in Western blots of whole-cell extract, but seen in the pull-downs; also called Orc6 187–257; Orc6 CTD; source: High5 cells (baculovirus): in lysate of co-infected cells; also purified (HisTrap, gel filtration); not shown: 6×His, N-terminal, kept
[1]
  binding: binds
[2]
  binding: binds

B5: Drosophila Orc6 94–257, N-terminal 6×His (domain or fragment, UniProt Q9Y1B2 94-257)
chain: KLASVNDICVQLGLNEVARKAEELMTLFKGVAATEDMGTDTSHPQYATMAVFQACRLLKKKVSKSKLMPFSNLRPSQFQLLEQQWERMIAKHHKESKVPSSTDMEGKLKENQNENIKGHEAKKAHKPPPEDYEIWKARMLAKAQAKLKELEASQSHMDSQLLEA
[1]
  binding: binds
[2]
  binding: binds

B6: Drosophila Orc6 147–257, N-terminal 6×His (domain or fragment, UniProt Q9Y1B2 147-257)
chain: ACRLLKKKVSKSKLMPFSNLRPSQFQLLEQQWERMIAKHHKESKVPSSTDMEGKLKENQNENIKGHEAKKAHKPPPEDYEIWKARMLAKAQAKLKELEASQSHMDSQLLEA
[1]
  binding: binds
[2]
  binding: binds

B7: S. cerevisiae Orc3 co-expressed with the other ORC subunits (protein, UniProt P54790 1-616)
chain: MSDLNQSKKMNVSEFADAQRSHYTVYPSLPQSNKNDKHIPFVKLLSGKESEVNVEKRWELYHQLHSHFHDQVDHIIDNIEADLKAEISDLLYSETTQKRRCFNTIFLLGSDSTTKIELKDESSRYNVLIELTPKESPNVRMMLRRSMYKLYSAADAEEHPTIKYEDINDEDGDFTEQNNDVSYDLSLVENFKRLFGKDLAMVFNFKDVDSINFNTLDNFIILLKSAFKYDHVKISLIFNINTNLSNIEKNLRQSTIRLLKRNYHKLDVSSNKGFKYGNQIFQSFLDTVDGKLNLSDRFVEFILSKMANNTNHNLQLLTKMLDYSLMSYFFQNAFSVFIDPVNVDFLNDDYLKILSRCPTFMFFVEGLIKQHAPADEILSLLTNKNRGLEEFFVEFLVRENPINGHAKFVARFLEEELNITNFNLIELYHNLLIGKLDSYLDRWSACKEYKDRLHFEPIDTIFQELFTLDNRSGLLTQSIFPSYKSNIEDNLLSWEQVLPSLDKENYDTLSGDLDKIMAPVLGQLFKLYREANMTINIYDFYIAFRETLPKEEILNFIRKDPSNTKLLELAETPDAFDKVALILFMQAIFAFENMGLIKFQSTKSYDLVEKCVWRGI
[3]
  binding: binds

B8: Drosophila Orc6 1–200, N-terminal 6×His (domain or fragment, UniProt Q9Y1B2 1-200)
chain: MTTLIEQLITKMGLREEPNVLEKTTELVRLLELRSTNVPLQINEYGKIVLCADLASCMIGIAFDKEQALKLSGLRKSQYLNNKRMFEKLLDLNKLASVNDICVQLGLNEVARKAEELMTLFKGVAATEDMGTDTSHPQYATMAVFQACRLLKKKVSKSKLMPFSNLRPSQFQLLEQQWERMIAKHHKESKVPSSTDMEGK
modifications: Alexa Fluor 488 on the N-terminus (only in the fluorescence anisotropy assay)
[1]
  binding: no binding
[2]
  binding: no binding

B9: Drosophila Orc6 1–220, N-terminal 6×His (domain or fragment, UniProt Q9Y1B2 1-220)
chain: MTTLIEQLITKMGLREEPNVLEKTTELVRLLELRSTNVPLQINEYGKIVLCADLASCMIGIAFDKEQALKLSGLRKSQYLNNKRMFEKLLDLNKLASVNDICVQLGLNEVARKAEELMTLFKGVAATEDMGTDTSHPQYATMAVFQACRLLKKKVSKSKLMPFSNLRPSQFQLLEQQWERMIAKHHKESKVPSSTDMEGKLKENQNENIKGHEAKKAHKP
modifications: Alexa Fluor 488 on the N-terminus (only in the fluorescence anisotropy assay)
[1]
  binding: no binding
[2]
  binding: no binding

B10: Drosophila Orc6 1–232, N-terminal 6×His (domain or fragment, UniProt Q9Y1B2 1-232)
chain: MTTLIEQLITKMGLREEPNVLEKTTELVRLLELRSTNVPLQINEYGKIVLCADLASCMIGIAFDKEQALKLSGLRKSQYLNNKRMFEKLLDLNKLASVNDICVQLGLNEVARKAEELMTLFKGVAATEDMGTDTSHPQYATMAVFQACRLLKKKVSKSKLMPFSNLRPSQFQLLEQQWERMIAKHHKESKVPSSTDMEGKLKENQNENIKGHEAKKAHKPPPEDYEIWKARM
modifications: Alexa Fluor 488 on the N-terminus (only in the fluorescence anisotropy assay)
[1]
  binding: no binding
[2]
  binding: no binding

B11: Drosophila Orc6-W228A/K229A, N-terminal 6×His (protein, UniProt Q9Y1B2 1-257)
chain: MTTLIEQLITKMGLREEPNVLEKTTELVRLLELRSTNVPLQINEYGKIVLCADLASCMIGIAFDKEQALKLSGLRKSQYLNNKRMFEKLLDLNKLASVNDICVQLGLNEVARKAEELMTLFKGVAATEDMGTDTSHPQYATMAVFQACRLLKKKVSKSKLMPFSNLRPSQFQLLEQQWERMIAKHHKESKVPSSTDMEGKLKENQNENIKGHEAKKAHKPPPEDYEIAAARMLAKAQAKLKELEASQSHMDSQLLEA
modifications: Alexa Fluor 488 on the N-terminus (only in the fluorescence anisotropy assay)
[1]
  binding: no binding
[2]
  binding: no binding
